The whole screen tested about 310,000 compounds, of which about 2,200 (0.71%) showed an effect of 50% or more. Effects have a minus sign here. The list shows a part of the results.
Target: human ether-à-go-go-related gene (hERG) potassium channel (human, UniProt Q12809)
Assay: primary screen, population patch clamp on CHO cells stably expressing hERG

Chain of human ether-à-go-go-related gene (hERG) potassium channel (Q12809 whole entry, looked up): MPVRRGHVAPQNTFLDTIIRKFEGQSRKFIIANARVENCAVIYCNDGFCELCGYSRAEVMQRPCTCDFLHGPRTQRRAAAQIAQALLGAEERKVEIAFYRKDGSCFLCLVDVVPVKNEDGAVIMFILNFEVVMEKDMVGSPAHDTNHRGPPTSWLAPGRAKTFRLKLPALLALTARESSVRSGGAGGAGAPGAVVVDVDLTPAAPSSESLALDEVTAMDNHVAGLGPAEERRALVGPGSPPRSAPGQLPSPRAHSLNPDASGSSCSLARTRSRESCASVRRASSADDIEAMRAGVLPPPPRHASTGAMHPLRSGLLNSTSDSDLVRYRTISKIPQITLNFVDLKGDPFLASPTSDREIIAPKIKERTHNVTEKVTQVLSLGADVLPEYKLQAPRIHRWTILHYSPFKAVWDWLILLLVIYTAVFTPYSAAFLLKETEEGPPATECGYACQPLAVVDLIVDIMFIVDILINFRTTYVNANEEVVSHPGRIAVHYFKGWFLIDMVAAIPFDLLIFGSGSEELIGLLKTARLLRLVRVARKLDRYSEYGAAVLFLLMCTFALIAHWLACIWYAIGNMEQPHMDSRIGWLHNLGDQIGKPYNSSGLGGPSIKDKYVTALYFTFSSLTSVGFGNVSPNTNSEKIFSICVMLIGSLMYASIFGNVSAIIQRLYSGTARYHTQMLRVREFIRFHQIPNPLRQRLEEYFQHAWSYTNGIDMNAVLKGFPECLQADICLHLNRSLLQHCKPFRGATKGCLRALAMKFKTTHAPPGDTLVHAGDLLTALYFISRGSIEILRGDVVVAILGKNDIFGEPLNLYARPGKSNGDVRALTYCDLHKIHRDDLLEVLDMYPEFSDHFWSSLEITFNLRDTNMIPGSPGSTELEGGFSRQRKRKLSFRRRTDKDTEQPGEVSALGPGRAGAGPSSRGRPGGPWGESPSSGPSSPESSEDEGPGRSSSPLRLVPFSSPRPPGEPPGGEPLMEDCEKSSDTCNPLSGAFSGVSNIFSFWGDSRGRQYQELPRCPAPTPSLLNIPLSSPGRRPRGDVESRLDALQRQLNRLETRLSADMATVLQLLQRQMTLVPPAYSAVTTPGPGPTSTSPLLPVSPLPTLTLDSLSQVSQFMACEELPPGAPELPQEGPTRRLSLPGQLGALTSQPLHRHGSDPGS

SMILES	hERG current change (%, negative = inhibition) at 1uM [%]
Cc1c(NC(=O)c2ccc([N+](=O)[O-])o2)cccc1-c1nc2ncccc2o1	4.28
COc1ccc2oc(C(=O)Nc3ccc(C)cn3)c(C)c2c1	7.75
CCOc1ccc(N2C(=O)C3CCCN3C2=S)cc1 (stereo not drawn)	8.82
O=C(CN1C(=O)NC2(CCCCC2)C1=O)Nc1ccccc1N1CCCC1	18.2
CC(C)(C)C1c2[nH]c3ccccc3c2CCN1Cc1cccc(OCCO)c1 (stereo not drawn)	5.64
CC(C)(C)C(=O)/C=c1\[nH]c(=O)/c(=C\c2ccccc2F)s1	9.02
COc1cccc(/C=C/C(=O)OCC(=O)NCc2ccco2)c1	-1.73
O=C(NCCc1ccccc1F)C1CCC(=O)N(CCCN2CCCC2=O)C1 (stereo not drawn)	-2.84
COc1cc(CN2CCNC(=O)C2CC(=O)N2CCCO2)cc(OC)c1 (stereo not drawn)	17.6
O=C(Nc1nnc(-c2ccc(Br)cc2)o1)c1ccco1	13.8
COc1ccc(NC(=O)CCC2CCCCC2)cc1S(=O)(=O)N1CCCCC1	10.4
O=C(O)c1ccccc1C(=O)NNc1ccc(F)cc1	13.6
CCOc1ccc(NC(=S)N(CCc2c(C)[nH]c3ccc(C)cc23)Cc2ccncc2)cc1	6.5
O=C(N/N=C/c1c[nH]c2ccc(Br)cc12)c1ccn(Cc2ccc(Cl)cc2)n1	13.9
NS(=O)(=O)c1ccc2nc(NC(=O)CS(=O)(=O)c3ccccc3)sc2c1	15.7
COc1ccc(N2CC(C(=O)Nc3c4c(nn3-c3ccc(OC)cc3)CS(=O)(=O)C4)CC2=O)cc1 (stereo not drawn)	16.5
Cc1ccc(NC(=O)CSc2nnc(CNC(=O)c3ccccc3F)o2)cc1Cl	15.4
COc1cccc(NC(=O)COC(=O)c2c(F)cccc2F)c1	2.58
COc1ccc(NS(=O)(=O)c2ccc(N3CCOCC3)c(NC(=O)c3ccc(F)cc3)c2)cc1	3.64
O=C(O)CC/C(=N\NC(=O)c1ccc(F)cc1)c1ccc(Br)cc1	8.76
Cc1cc(N=NC(=O)c2ccccc2O)c2ccccc2c1O	6.62
O=C1CN(C(=O)COC(=O)C2CC(=O)N(Cc3ccco3)C2)c2ccccc2N1 (stereo not drawn)	-2.61

SMILES	hERG current change (%, negative = inhibition) at 1uM [%]
CC(=O)COc1ccc(-c2csnn2)cc1	8.04
CCn1cc(S(=O)(=O)Nc2cc(F)ccc2C)cn1	16.5
CC(=O)Nc1ccc(S(=O)(=O)NC2CCS(=O)(=O)C2)cc1Cl (stereo not drawn)	11.1
COc1cc(C(=O)NCC(=O)OCn2nnc3ccccc3c2=O)cc(OC)c1OC	22.8
CS(=O)(=O)N1CCC(C(=O)Nc2ccc(OCc3ccccc3)cc2)CC1	15.1
O=C(CSc1nnc(COc2ccccc2)o1)Nc1nccs1	10.5
Cc1ccccc1NC(=S)N(CCN(C)C)C(C)c1ccccn1 (stereo not drawn)	1.34
O=C(NCCc1cccc(C(F)(F)F)c1)C1CCC(=O)N(C2CC2)C1 (stereo not drawn)	3.79
COc1ccc([N+](=O)[O-])cc1NS(=O)(=O)c1cc(C(=O)NCc2cccnc2)ccc1Cl	2.04
CC(=O)c1ccc(N2CCN(CC(=O)Nc3cc(C)on3)CC2)cc1	8.6
CC(=O)N1c2ccc(S(=O)(=O)N3CCC(C(=O)NCc4ccc(Cl)cc4)CC3)cc2CC1C (stereo not drawn)	10.9
O=S(=O)(NCCc1ccccc1)c1ccc(Br)s1	6.08
COCCNC(=O)c1cc2c(=O)n(C)c3ccccc3c2n1C	13
CCCn1c2c(c(O)c(C(=O)Nc3ccc(OCC)cc3)c1=O)CCCC2	1.43
CS(=O)(=O)c1ncc(CO)n1Cc1ccccc1	9.59
Cc1nnc(SCC(=O)Nc2c(C)n(C)n(-c3ccccc3)c2=O)n1Cc1ccccc1	12.1
Cc1nc2ccccc2n1CSc1ccccc1	-6.18
O=C(N/N=C/C=C/c1ccc2c(c1)OCO2)C(O)c1ccccc1 (stereo not drawn)	5.04
COc1ccc2c(c1)cc(C(=O)N[C@H](C(=O)N1CCC[C@H]1C(=O)O)C(C)C)n2C	12.9
COc1ccccc1CN(Cc1nc2ccccc2c(=O)[nH]1)S(=O)(=O)c1ccc2ccccc2c1	13.7
O=C(/C=C\c1ccccc1)Nc1nccs1	10.8
CCSc1nc(-c2cccnc2)ccc1C#N	-1.54

SMILES	hERG current change (%, negative = inhibition) at 1uM [%]
Fc1ccccc1CNC(=S)NC1CCCCC1	15.2
Cc1ccccc1-n1c(SCC(=O)Nc2ccccc2)nc2nc3c(cc2c1=O)CCCC3	8.27
COc1ccc(-n2c(C)cc(-c3cn4cccc(C)c4n3)c2C)cc1	-11
Nn1c(C2CCCCC2)nc2ccccc2c1=O	0.631
Cc1cc(C)cc(NC(=O)N2CCCC2C(=O)NCc2ccco2)c1 (stereo not drawn)	11.6
CCCc1c(C(=O)N/N=C/c2cccc(OCc3ccc(F)cc3)c2)nnn1-c1nonc1N	12.3
O=C(O)Cc1sc(-c2ccccc2)nc1-c1ccccc1	12.5
Cc1ccc(C)c(NC(=O)c2cc(=O)c3ccccc3o2)c1	8.95
Cc1c(C(=O)Nc2ccc3c(c2)OCO3)oc2ccccc12	7.82
CN(C(=O)CC1C(=O)NCCN1Cc1ccc(F)c(F)c1)C1CCCCC1 (stereo not drawn)	10.3
CCOc1ccc(N2C(=O)C3ON(c4ccccc4)C(c4cccs4)C3C2=O)cc1 (stereo not drawn)	14.5
Cc1cc(-c2nnc(SCC(=O)Nc3ccc(Cl)cn3)n2N)n[nH]1	2.87
CCOc1cc2[nH]c(=S)n(CCC(=O)NCc3ccc(OC)cc3)c(=O)c2cc1OCC	19.3
Cc1ccccc1-n1nc(C)c2cc(C(=O)N3CCOCC3)sc21	13.3
CN(C(=O)COC(=O)c1cc([N+](=O)[O-])ccc1Cl)c1ccccc1	4.19
CC(C)N1C(=O)CCC1C(=O)NCCc1ccccc1 (stereo not drawn)	-4.91
O=C(CCCCO)CCCCCCCC[C@H]1N[C@H](CO)[C@H](O)[C@@H]1O[C@@H]1O[C@H](CO)[C@@H](O)[C@H](O)[C@H]1O	8.58
CC(=O)Nc1ccc(C(=O)OCC(=O)N(Cc2ccccc2)C(C)(C)C)cc1	5.24
Cc1cc(C(F)(F)F)nn1Cc1n[nH]c(=S)n1-c1ccc(F)cc1	9.76
N#CCC(=O)Nc1ccc(C(=O)OCC(=O)NC(=O)Cc2ccccc2)cc1	13.8
CN(C)S(=O)(=O)c1ccc(C(=O)NCCOc2ccc(F)cc2)cc1	0.678
CCCN(C(=O)C1CSC2(C)CCC(=O)N12)c1c(N)n(Cc2ccccc2)c(=O)[nH]c1=O (stereo not drawn)	19.4

SMILES	hERG current change (%, negative = inhibition) at 1uM [%]
Clc1ccc2c(c1)C(c1ccccc1Cl)=NCc1nnc(Br)n1-2.c1ccccc1	2.57
CCc1cccc(C)c1NC(=O)COC(=O)C1CCN(S(=O)(=O)c2ccccc2)CC1	20.2
CCc1ccccc1NC(=O)/C(C#N)=C\c1ccc(Sc2ccccc2)o1	-7.2
O=C(CSc1nnc(-c2cccs2)n1Cc1ccco1)Nc1ccc2c(c1)OCO2	0.29
CCN(CC)c1ccc(N=Cc2ccc([N+](=O)[O-])o2)cc1	1.1
C=CCNC(=S)N(CC)c1cccc2ccccc12	2.02
Cc1nc(N2CCCC2)c2ccsc2n1	8.87
COc1ccc(NC(=O)CN2CCN(Cc3ccccc3)CC2)cc1	-25.8
COC(=O)Cn1cnc2c1c(=O)n(C)c(=O)n2C	5.91
O=C(N/N=C/c1ccc(-c2ccc(S(=O)(=O)Nc3ncccn3)cc2)o1)c1cc2ccccc2cc1O	17.6
CCC(NC(=O)c1ccccc1NC(=O)c1ccc(OC)cc1)C(=O)N1CCCC1 (stereo not drawn)	10.9
CCCC(=O)Nc1ccc(NC(=O)c2cccc(OC)c2)cn1	13
O=C(O)CCn1c(SCCOc2ccccc2F)nc2ccccc21	10.8
CCOc1ccc(S(=O)(=O)Nc2ccc3c(c2)c2c(n3S(=O)(=O)c3ccc(OCC)cc3)CCCC2=O)cc1	13.9
Cc1ccccc1C(=O)N1CCC(C(=O)Nc2ccc(S(=O)(=O)N3CCOCC3)cc2)CC1	8.83
CC(Nc1ccccc1)c1cc(Cl)ccc1O (stereo not drawn)	5.5
COc1ccc(-c2[nH]c(-c3cc(OC)c4c(c3)OCO4)nc2-c2ccccc2)cc1	-4.82
CN(C)c1ccc(S(=O)(=O)N2CCCCC2)cc1NC(=O)C1CSC2(C)CCC(=O)N12 (stereo not drawn)	6.62
COc1ccc(/C=N/NC(=O)c2cccnc2)c2ccccc12	15.8
Cc1ccc(N(CC(=O)Nc2c(C)cccc2C)S(C)(=O)=O)cc1	16.2
Cc1cccc(NC(=O)c2ccc(OC3CSC3)cc2)c1	16.1

— paper PMC4336329 (PLoS ONE, 2015)
